Data on 28 compounds can be found in ChEMBL document CHEMBL1201862, “PubChem BioAssay data set” (2004).

Each structure is given as a SMILES string.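 In this assay, cells in 96-well plates receive the compound at five concentrations for 48 hours. Endpoints are linearly interpolated between the surrounding concentrations. GI50 = concentration required for 50% inhibition of growth.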 The source made the active and inactive calls. Cut-off read from the data, not from the text of the source: active = GI50 up to about 1.1 µM and inactive = higher. Bridge positions count the residues as written; N and C are the ends. Square brackets hold non-standard residues; d marks the D form. Peptide text beside a SMILES is read from it. * marks the point of attachment. ξ: configuration not given here. Phe(4-NO2) = N[CH](Cc1ccc([N+](=O)[O-])cc1)C(=O)O; Tyr(3-Br) = N[C@@H](Cc1ccc(O)c(Br)c1)C(=O)O; Trt = c1ccc(C(c2ccccc2)(c2ccccc2)*)cc1; NMeF = CN[CH](Cc1ccccc1)C(=O)O; ξNMeF = CNC(Cc1ccccc1)C(=O)O; NMeV = CN[CH](C(=O)O)C(C)C; ξNMeV = CNC(C(=O)O)C(C)C; Cbz = O=C(OCc1ccccc1)*; Pentanoyl = CCCCC(=O)*; ξD = NC(CC(=O)O)C(=O)O; Ac3c = NC1(C(=O)O)CC1; Boc = CC(C)(C)OC(=O)*; Aib = CC(C)(N)C(=O)O; Lac = C[CH](O)C(=O)O; OBn = c1ccc(CO*)cc1; Bn = c1ccc(C*)cc1; OtBu = CC(C)(C)O*; βAla = NCCC(=O)O; NHNH2 = NN*; nBu = CCCC*

The test concerns NCI-H322M. The experiment in a line: NCI anticancer screen, dose series, 48 h.
For `COC(=O)C(CCCCNC(=O)OCc1ccccc1)NC(=O)C(CCC(=O)OCc1ccccc1)NC(=O)OC(C)(C)C` (stereo not drawn) (Boc-Glu(OBn)-Lys(Cbz)-OMe; configuration not given here), the GI50 is inactive: > 100 µM.
The result for `COC(=O)CCC(NC(=O)OC(C)(C)C)C(=O)NC(Cc1ccc([N+](=O)[O-])cc1)C(=O)NC(CCC(=O)OC)C(=O)OC` (stereo not drawn) (Boc-Glu(OMe)-[Phe(4-NO2)]-Glu(OMe)-OMe; configuration not given here) reads inactive: > 100 µM; that for `COC(=O)CCC(NC(=O)OC(C)(C)C)C(=O)NC(Cc1ccc([N+](=O)[O-])cc1)C(=O)NCC(=O)OCc1ccccc1` (stereo not drawn) (Boc-Glu(OMe)-[Phe(4-NO2)]-Gly-OBn; configuration not given here), inactive: 42.8 µM.
The result for `CC(NC(=O)CNC(=O)OC(C)(C)C)C(=O)NC(Cc1ccccc1)C(=O)OCc1ccccc1` (stereo not drawn) (Boc-Gly-Ala-Phe-OBn; configuration not given here) reads inactive: > 100 µM.
The same measure for `CCOC(=O)C(CC(C)C)NC(=O)C(Cc1ccccc1)NC(=O)CNC(=O)OC(C)(C)C` (stereo not drawn) (Boc-Gly-Phe-Leu-OEt; configuration not given here): inactive: 24.4 µM; for `CC(C)CC(NC(=O)OC(C)(C)C)C(=O)N1CCCC1C(=O)OCc1ccccc1` (stereo not drawn) (Boc-Leu-Pro-OBn; configuration not given here): inactive: > 100 µM; for `CC(NC(=O)C(Cc1ccccc1)NC(=O)C(Cc1ccccc1)NC(=O)OC(C)(C)C)C(=O)OCc1ccccc1` (stereo not drawn) (Boc-Phe-Phe-Ala-OBn; configuration not given here): inactive: > 100 µM.
In the case of `CC(OC(=O)C(Cc1ccccc1)NC(=O)C(Cc1ccccc1)NC(=O)OC(C)(C)C)C(=O)OCc1ccccc1` (stereo not drawn) (Boc-Phe-Phe-[Lac]-OBn; configuration not given here), the GI50 was inactive: > 100 µM.
Consider `CC(C)(C)OC(=O)NC(Cc1ccccc1)C(=O)N1CCCC1C(N)=O` (stereo not drawn) (Boc-Phe-Pro-NH2; configuration not given here), for which the GI50 was inactive: > 100 µM.
The result for `COC(=O)C(CC(C)C)NC(=O)C(C)NC(=O)C(Cc1ccc(OCc2ccccc2)cc1)NC(=O)C(COCc1ccccc1)NC(=O)OC(C)(C)C` (stereo not drawn) (Boc-S(Bn)Y(Bn)AL-OMe; configuration not given here) reads inactive: > 100 µM; that for `COC(=O)C(CC(C)C)NC(=O)CNC(=O)C(Cc1ccc(OCc2ccccc2)cc1)NC(=O)C(COCc1ccccc1)NC(=O)OC(C)(C)C` (stereo not drawn) (Boc-S(Bn)Y(Bn)GL-OMe; configuration not given here), inactive: > 100 µM.
The result for `COC(=O)[C@H](Cc1ccc(O)c(Br)c1)NC(=O)[C@H](Cc1ccc(O)cc1)NC(=O)OC(C)(C)C` (Boc-Tyr-[Tyr(3-Br)]-OMe) reads inactive: 86.5 µM; that for `CC(C)C(NC(=O)CNC(=O)C1CCCN1C(=O)C(NC(=O)OC(C)(C)C)C(C)C)C(=O)NCC(=O)OCc1ccccc1` (stereo not drawn) (Boc-VPGVG-OBn; configuration not given here), inactive: > 100 µM; that for `CC(C)C(NC(=O)OC(C)(C)C)C(=O)N(C)C(Cc1ccccc1)C(=O)N(C)C(C(=O)N(C)C(C(=O)OCc1ccccc1)C(C)C)C(C)C` (stereo not drawn) (Boc-V[NMeF][NMeV][NMeV]-OBn; configuration not given here), inactive: > 100 µM.
With `CC(C)C(NC(=O)OC(C)(C)C)C(=O)N(C)C(Cc1ccccc1)C(=O)N(C)C(C(=O)N(C)C(C(=O)O)C(C)C)C(C)C` (stereo not drawn) (Boc-V[NMeF][NMeV][NMeV]-OH; configuration not given here), the GI50 was inactive: > 100 µM.
The result for `CC(C)C(C(=O)N(C)[C@H](C(=O)N1CCC[C@H]1C(=O)N(C)[C@@H](Cc1ccccc1)C(=O)OCc1ccccc1)C(C)C)N(C)C(=O)[C@@H](NC(=O)OC(C)(C)C)C(C)C` (stereo partly drawn) (Boc-V[ξNMeV][NMeV]P[NMeF]-OBn) reads inactive: > 31.6 µM; that for `CC(C)C(NC(=O)OC(C)(C)C)C(=O)N(C)C(Cc1ccccc1)C(=O)N(C)C(C(=O)OCc1ccccc1)C(C)C` (stereo not drawn) (Boc-Val-[NMeF]-[NMeV]-OBn; configuration not given here), inactive: > 100 µM; that for `CCCCC(=O)Oc1ccc(CC(NC(=O)OC(C)(C)C)C(=O)NC(C)C(=O)NC(Cc2ccccc2)C(=O)NCC(N)=O)cc1` (stereo not drawn) (Boc-Y(Pentanoyl)AFG-NH2; configuration not given here), inactive: 18.7 µM.
The same measure for `CCCCOc1ccc(CC(NC(=O)OC(C)(C)C)C(=O)NC(C)C(=O)NC(Cc2ccccc2)C(=O)NCC(N)=O)cc1` (stereo not drawn) (Boc-Y(nBu)AFG-NH2; configuration not given here): inactive: 75.3 µM; for `COC(=O)CNC(=O)C(Cc1ccccc1)NC(=O)C(CCSC)NC(=O)C(Cc1ccc(O)cc1)NC(=O)OC(C)(C)C` (stereo not drawn) (Boc-YMFG-OMe; configuration not given here): inactive: 82.4 µM; for `CC(C)C(C(=O)N1CCC[C@@H]1C(=O)OCc1ccccc1)N(C)C(=O)C(C(C)C)N(C)C(=O)[C@H](Cc1ccccc1)N(C)C(=O)[C@H](NC(=O)OC(C)(C)C)C(C)C` (stereo partly drawn) (Boc-[dV][NMeF][ξNMeV][ξNMeV][dP]-OBn): inactive: > 100 µM.
The result for `CC(C)[C@@H](C(=O)N(C)[C@H](C(=O)N1CCC[C@H]1C(=O)OCc1ccccc1)C(C)C)N(C)C(=O)C(Cc1ccccc1)N(C)C(=O)[C@H](NC(=O)OC(C)(C)C)C(C)C` (stereo partly drawn) (Boc-[dV][ξNMeF][NMeV][NMeV]P-OBn) reads inactive: > 31.6 µM; that for `COC(=O)C1(NC(=O)C(CC(=O)OCc2ccccc2)NC(=O)OC(C)(C)C)CC1` (stereo not drawn) (Boc-[ξD](OBn)-[Ac3c]-OMe), inactive: > 100 µM.
As for `COC(=O)C(C)(C)NC(=O)C(C)(C)NC(=O)C(CC(=O)OC(C)(C)C)NC(=O)OC(C)(C)C` (stereo not drawn) (Boc-[ξD](OtBu)-[Aib]-[Aib]-OMe), the GI50 was inactive: > 100 µM.
On to `COC(=O)C(CO)NC(=O)C(CSC(c1ccccc1)(c1ccccc1)c1ccccc1)NC(=O)OCc1ccccc1` (stereo not drawn) (Cbz-Cys(Trt)-Ser-OMe; configuration not given here), for which the GI50 is inactive: 19.3 µM.
The result for `CC1(C)NC(=O)C(NC(=O)C(CC(=O)OCc2ccccc2)NC(=O)OCc2ccccc2)CCCCNC(=O)CCNC1=O` (stereo not drawn) (Cbz-D(OBn)K[Aib][βAla]; lactam 2-C; configuration not given here) reads inactive: > 100 µM; that for `COC(=O)CC(NC(=O)OCc1ccccc1)C(=O)NC(CC(=O)OC)C(=O)NC(CC(=O)OC)C(=O)NC(CC(=O)OC)C(=O)NC(CC(=O)OC)C(=O)NC(CC(=O)OC)C(=O)NN` (stereo not drawn) (Cbz-D(OMe)D(OMe)D(OMe)D(OMe)D(OMe)D(OMe)-NHNH2; configuration not given here), inactive: > 100 µM; that for `CCOC(=O)CCC(NC(=O)OCc1ccccc1)C(=O)NC(CCC(=O)OCC)C(=O)NC(Cc1ccc([N+](=O)[O-])cc1)C(=O)NC(CCC(=O)OCC)C(=O)NC(CCC(=O)OCC)C(=O)OCC` (stereo not drawn) (Cbz-E(OEt)E(OEt)[Phe(4-NO2)]E(OEt)E(OEt)-OEt; configuration not given here), inactive: > 100 µM.
